Measured values as given in the supplement of paper PMC4166925.
± gives the standard deviation of the averaged measurements. The full ranking holds about 33,000 sequences; the median of “E-score (dimensionless, -0.5 to 0.5)” is about -0.049, and the highest 2% start at about 0.37. The list shows a part of the results.

System: T1, PmTbr T-box DNA-binding domain (GST fusion)
T1 sequence: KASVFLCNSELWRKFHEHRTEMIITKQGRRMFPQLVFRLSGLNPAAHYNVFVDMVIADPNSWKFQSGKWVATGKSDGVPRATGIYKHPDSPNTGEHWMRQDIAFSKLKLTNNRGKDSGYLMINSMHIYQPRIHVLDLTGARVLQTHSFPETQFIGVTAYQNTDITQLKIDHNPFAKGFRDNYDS
Assay: PBM E-score of 8-mer (E-score (dimensionless, -0.5 to 0.5)); Tbr is Tbrain of the sea star Patiria miniata (Pm) or the sea urchin Strongylocentrotus purpuratus (Sp); higher = stronger binding preference; most listed sequences are background and not binding sites
Conditions: the construct has about 5 more residues each side
Outline: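 Universal Agilent oligonucleotide arrays, made double-stranded by primer extension, were incubated with 200 nM GST-fused Tbr T-box DNA-binding domain in PBS (pH 7.5). The protein was expressed in BL21 E. coli at 20 °C and purified by glutathione affinity chromatography. After scanning and quantification, the Universal PBM Analysis Suite assigned an enrichment E-score to each ungapped 8-mer, averaged over duplicate arrays.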

| Sequence | PBM E-score of 8-mer |
| --- | --- |
| GGACCTCA | -0.194 ± 0.042 |
| ATGAGGGC | -0.159 ± 0.035 |
| CGGTAAGC | -0.0776 ± 0.021 |
| AGCTTAAA | -0.236 ± 0.079 |
| AACCTATG | -0.141 ± 0.019 |
| GTCGCGAC | 0.385 ± 0.0054 |
| CCGCAAGC | -0.0781 ± 0.097 |
| CACGTGCA | 0.219 ± 0.023 |
| CTTAGCAA | 0.0581 ± 0.031 |
| ACTGATTC | -0.25 ± 0.019 |
| GAAATTCA | -0.00077 ± 0.00047 |
| GACATAAC | 0.0267 ± 0.016 |
| CACAGAGC | -0.165 ± 0.047 |
| AGATTTTG | -0.0202 ± 0.02 |
| AGTGTAGG | 0.033 ± 0.0069 |
| ACTCAAGT | -0.000135 ± 0.051 |
| GGGCTACA | -0.199 ± 0.036 |
| TGCGGACA | 0.13 ± 0.0038 |
| GCGCTTAC | 0.178 ± 0.0096 |
| AACAACAT | 0.123 ± 0.0088 |
| CACCCGCA | 0.261 ± 0.031 |
| CCTTAATC | 0.0639 ± 0.029 |
| CGCTGCTC | -0.0866 ± 0.022 |
| AAATTCGC | 0.255 ± 0.029 |
| CCGACAGG | 0.121 ± 0.053 |

| Sequence | PBM E-score of 8-mer |
| --- | --- |
| ATCGCGTG | 0.246 ± 0.017 |
| CAATACAG | -0.1 ± 0.057 |
| CTACAATC | 0.129 ± 0.022 |
| CTTTGGAA | -0.166 ± 0.045 |
| CGGATATA | -0.213 ± 0.0022 |
| CAACGCCC | 0.2112 ± 0.00054 |
| CGGCTTGA | -0.00918 ± 0.014 |
| TAAACAAA | 0.038 ± 0.014 |
| CCAGCACC | 0.264 ± 0.035 |
| CCTTACCA | 0.0951 ± 0.089 |
| AATGTTAT | -0.00229 ± 0.038 |
| ACCACCCC | 0.191 ± 0.072 |
| ACTTAAAG | 0.0623 ± 0.041 |
| CTGTTAAC | 0.281 ± 0.055 |
| CACCTCTA | 0.44129 ± 0.00038 |
| CGATCAGC | 0.0482 ± 0.0031 |
| AAGGTTAG | -0.0617 ± 0.054 |
| GGCCAGTA | -0.0613 ± 0.025 |
| AGATCCCG | -0.0625 ± 0.084 |
| CGTATTTA | -0.00831 ± 0.11 |
| CAGGGCCC | -0.299 ± 0.032 |
| ACTCTCAA | 0.00381 ± 0.03 |
| AGGCTACA | -0.0503 ± 0.024 |
| GGCCTCCC | -0.181 ± 0.008 |
| ACTCCCAT | -0.0486 ± 0.024 |

| Sequence | PBM E-score of 8-mer |
| --- | --- |
| CTTCTGGA | -0.2303 ± 0.0021 |
| AGAATTCA | -0.0891 ± 0.075 |
| ACTGCAGT | 0.185 ± 0.034 |
| TGCTTCCA | -0.124 ± 0.098 |
| AGGGCCAG | -0.185 ± 0.033 |
| ACACATTG | 0.39 ± 0.017 |
| ACGAACAT | -0.224 ± 0.011 |
| CGCTGTAA | 0.0407 ± 0.019 |
| ATTTTCGG | -0.00858 ± 0.028 |
| ATTGACTG | -0.0222 ± 0.017 |
| TTATACAA | -0.0496 ± 0.049 |
| CCGGGACG | -0.274 ± 0.09 |
| CATCTCCA | 0.128 ± 0.0027 |
| GGGATTAA | -0.159 ± 0.051 |
| ATAAGGAA | -0.166 ± 0.079 |
| GTCATCTA | -0.0416 ± 0.04 |
| GACATGCC | -0.0764 ± 0.03 |
| AGAAATCT | -0.161 ± 0.079 |
| GTGTTGCA | 0.30766 ± 0.00019 |
| AGCCCTAC | -0.306 ± 0.038 |
| CAATAGCG | 0.118 ± 0.13 |
| CTATTAAC | 0.148 ± 0.04 |
| TGGGAGAA | -0.0759 ± 0.003 |
| ACATCCGC | -0.0577 ± 0.029 |
| ATCAGCCG | -0.118 ± 0.0032 |

| Sequence | PBM E-score of 8-mer |
| --- | --- |
| ACTCCCAG | 0.0574 ± 0.15 |
| CATCCGAC | -0.1077 ± 0.00047 |
| ACAGGATG | -0.0297 ± 0.003 |
| ACAGGAGA | -0.2114 ± 0.001 |
| CTCCGTGC | -0.161 ± 0.079 |
| ACAGGGAC | -0.153 ± 0.017 |
| AGATAGAA | -0.122 ± 0.05 |
| ATCAACAG | 0.0457 ± 0.077 |
| TAAACCCA | -0.0858 ± 0.0046 |
| CTTATCGA | 0.149 ± 0.0083 |
| AGCTCCAT | -0.286 ± 0.056 |
| GGTATATA | -0.0526 ± 0.016 |
| ACACTATA | 0.269 ± 0.0039 |
| CATGAGGC | -0.146 ± 0.074 |
| GTCTATAA | -0.11 ± 0.017 |
| AAGATAGG | -0.213 ± 0.029 |
| ATTGGGGC | -0.0884 ± 0.083 |
| AAGGCCCG | -0.267 ± 0.075 |
| AGCATATG | -0.0737 ± 0.041 |
| ACAAATCG | 0.175 ± 0.0097 |
| GCGATGCC | 0.0631 ± 0.0054 |
| GTGAGCAA | 0.23225 ± 4.2e-05 |
| CCCCTCAC | 0.189 ± 0.049 |
| CCTAGGAC | 0.141 ± 0.039 |
| GAGTCAGC | -0.147 ± 0.016 |

| Sequence | PBM E-score of 8-mer |
| --- | --- |
| AGACATGA | 0.173 ± 0.021 |
| GGAACTTA | -0.154 ± 0.032 |
| GCTTCTGA | -0.015 ± 0.033 |
| ATTCACAC | 0.4763 ± 0.0034 |
| GCTACGCA | -0.0652 ± 0.035 |
| AAGAGCGT | -0.119 ± 0.04 |
| AAGGAAGT | 0.0236 ± 0.043 |
| ATCTTGTG | 0.00868 ± 0.075 |
| CCCCGGCC | -0.0747 ± 0.06 |
| CATAACCG | 0.0089 ± 0.018 |
| CGCCTCGA | 0.151 ± 0.069 |
| ATCCTCAG | -0.0729 ± 0.034 |
| AACAAAGC | 0.0116 ± 0.00023 |
| AGTTTCAT | -0.23 ± 0.038 |
| ACGCAAAA | 0.167 ± 0.0045 |
| CCCCTACA | -0.0297 ± 0.0042 |
| GCAGCATA | -0.0274 ± 0.017 |
| CCACCGCA | -0.0384 ± 0.031 |
| TACATTCA | -0.0602 ± 0.15 |
| CCTTCCGA | -0.048 ± 0.027 |
| GGTTTTAC | -0.118 ± 0.0048 |
| TGACGACA | 0.264 ± 0.034 |
| CCCGCGCA | -0.0204 ± 0.085 |
| TACAGACA | 0.0602 ± 0.028 |
| GCACTGGC | -0.145 ± 0.12 |

| Sequence | PBM E-score of 8-mer |
| --- | --- |
| AACGGTAG | -0.0635 ± 0.0099 |
| ATGCTTAC | -0.113 ± 0.11 |
| GATCGTGC | 0.0937 ± 0.057 |
| CTTCGAAG | 0.0912 ± 0.026 |
| GAAAAGCA | -0.0323 ± 0.00098 |
| CACCAGAC | 0.113 ± 0.011 |
| CCGCCGCC | -0.0738 ± 0.1 |
| GCAAGCAA | 0.0011 ± 0.053 |
| AATTGGAG | -0.116 ± 0.0036 |
| CAAATTTA | -0.0401 ± 0.12 |
| CATGCGAC | 0.0036 ± 0.057 |
| ACTCGTCC | -0.0232 ± 0.021 |
| GAGCACAA | -0.133 ± 0.02 |
| GCGCGCGA | 0.2759 ± 0.00057 |
| ACAGATGT | 0.153 ± 0.02 |
| ACTTGGAG | -0.00346 ± 0.017 |
| AGTCGACT | 0.0957 ± 0.0034 |
| AGGTTTGC | -0.169 ± 0.029 |
| ACTATGGC | 0.0668 ± 0.019 |
| GGTGCGCA | 0.173 ± 0.045 |
| ATTCGACG | -0.0492 ± 0.026 |
| ATACCCAC | -0.22 ± 0.029 |
| AGTGTGGA | 0.354 ± 0.0036 |
| TATTCAAA | -0.319 ± 0.073 |
| GACGAAAC | 0.0247 ± 0.027 |

| Sequence | PBM E-score of 8-mer |
| --- | --- |
| ACATTCCC | -0.176 ± 0.043 |
| GCTTCACC | 0.0106 ± 0.012 |
| CTCATCAG | -0.208 ± 0.023 |
| ATGTTTAG | -0.22 ± 0.022 |
| TCTCCCAA | 0.0238 ± 0.012 |
| AGGACCGA | -0.0377 ± 0.051 |
| CAGCGTGA | 0.266 ± 0.0088 |
| AGGATTTA | -0.163 ± 0.011 |
| AGTGTCAT | 0.387 ± 0.0042 |
| AAGATAAA | -0.115 ± 0.086 |
| AAGCGGTA | -0.0518 ± 0.051 |
| ACGCGAGG | 0.14 ± 0.017 |
| CCTCTATC | -0.0172 ± 0.037 |
| ATGACACC | 0.463 ± 0.0098 |
| ACTCCTAG | -0.0368 ± 0.041 |
| GGGGCTGA | -0.1789 ± 0.00037 |
| TCGGAACA | -0.0443 ± 0.0089 |
| AATGGACG | -0.0703 ± 0.005 |
| GAGCGTCC | -0.297 ± 0.038 |
| AGAGTCGC | 0.171 ± 0.022 |
| AAGGGCCT | -0.248 ± 0.0044 |
| AATGTTGG | -0.0727 ± 0.029 |
